Source: the supplement of paper PMC11417369
± gives the standard deviation of the averaged measurements. The list shows a part of the results.

Each sequence was assayed on PfAP2-LT AP2 domain (GST-tagged) (assay: gcPBM binding intensity (ln(normalized median fluorescence intensity)); higher = stronger DNA binding).
Summary of the method: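 GST-tagged P. falciparum DNA-binding domains produced in E. coli were incubated for 1 h on an Agilent 4 × 180k array of primer-extended double-stranded 36-bp intergenic genomic probes with negative controls. Binding intensity is the highest Masliner-normalised natural-log median intensity across replicate spots of either probe orientation, with bound protein detected by Alexa488 anti-GST antibody at 488 nm.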

Sequence | gcPBM binding intensity (ln)
AATAAATAAATACATCTCAGTATATAAACAAACAAA [CACACA_negctrl_site1604] | 8.89 ± 0.51
ATGAAACATGTATATTGTACTCTGGATCAATTTAAT [XGTACX_site6413] | 8.85 ± 0.37
AAGCCTTAAAAGGAAAGTACGTATATATATATATAT [XGTACX_site8559] | 9.91 ± 0.53
ATATTTAATTAAAAGAGTACTTAAATAAAATAAATG [XGTACX_site2149] | 8.48 ± 0.45
AAATTTATTATATATACATGCAATCATAAATAATGT [TGCATGCA_site539] | 8.56 ± 0.42
AAGAAAATAGAAAATACACACAGCAAACAGAGGAAT [CACACA_site3785] | 9.6 ± 0.29
AATGTATATATATATATATATATATATATTTATTTA [CACACA_negctrl_site113] | 9.09 ± 0.46
ATATATATATATTTATGTACATATATTTTTTTTTTT [XGTACX_site8558] | 9.01 ± 0.38
AATAATAAATCAAACTGTACATATATTTTCAATCTA [XGTACX_site3344] | 8.6 ± 0.52
TGTAGTCTGGAGAAAAGTACACAGTATCCGGTAACT [XGTACX_site4934] | 8.86 ± 0.38
TTTTTTTTTTTGTTCACACATATATATATATATATA [CACACA_site5376] | 9.22 ± 0.23
TTATAAATAAAAAATACACACATATATTTATTTATA [CACACA_site6242] | 8.56 ± 0.5
ATAATATATGAAAGTGGTACACAAAGGAAAATAAAA [XGTACX_site333] | 9.04 ± 0.54
ATCCTAATATTGAACTGTACCTTATATGTTATTATA [XGTACX_site1014] | 8.87 ± 0.45
GGTTATATATTTTTTGCACACCAAAAAAGAGAATAT [CACACA_site2731] | 8.95 ± 0.42
ACGTGTATTTATTTAGTGCACTTTATATTTTTTCTT [GTGCAC_site9426] | 9.18 ± 0.48
TATATATATATATATACACACATATATACATATATA [CACACA_site4043] | 9.59 ± 0.26
TATACATACACATACACACATACACCCATACACATA [CACACA_site1746] | 9.69 ± 0.33
TTTATATTAATTGATGTGCACTGAAATATTTGTCCA [GTGCAC_site9655] | 8.62 ± 0.53
ACCCTATAGGTAACTACACACCGCATATTGTTTACT [CACACA_site7436] | 9.15 ± 0.34
TTAACTATGAATACATGTACATGAAAATATTTCAAT [XGTACX_site1069] | 8.8 ± 0.34
GGCAAATTTATTATACCCACATACATACATACATAC [XGTACX_negctrl_site186] | 9.01 ± 0.32

Sequence | gcPBM binding intensity (ln)
AAAATTAAACAAAGTTGTACAAAATAATAATAAAAG [XGTACX_site7515] | 9.06 ± 0.47
AAATTAATAAAAAATGGTACACAAAATGGATGTATA [XGTACX_site1561] | 8.79 ± 0.49
TATGTATATTATATGACACACATTTATATATATATA [CACACA_site1167] | 8.91 ± 0.32
TTTTGTTGATTTATATCTGTAGGGTTTAATATAACA [XGTACX_negctrl_site174] | 8.51 ± 0.33
AATAAATAAATAAATATATATATATATATATATATG [CACACA_negctrl_site899] | 9.02 ± 0.14
AAAAAGGATAAACACACACACACACCGATATATATA [CACACA_site8206] | 10.34 ± 0.099
TTATTTTTGTGTAAGGTGCTATATATAATGTTTTTA | 8.71 ± 0.41
AAATGTGATATAAGTACACACACATATGTATATATA [CACACA_site8539] | 9.49 ± 0.33
AACGAAATCATCAAGTGTACTAGTTTATTATTAATA [XGTACX_site6161] | 8.79 ± 0.5
ATATACACACATAAGTGTACTTATATTTCATATATA [XGTACX_site8646] | 8.97 ± 0.47
TAATTAACAAACTATAGTACACAAAATACTTCATAT [XGTACX_site6375] | 8.79 ± 0.49
CCATGTCACAATTTTTCACACACAAAATTTATATAC [CACACA_site8628] | 9.19 ± 0.39
AAAATAAAATAAAACACAAAAAAATAAAACAAAATA [CACACA_negctrl_site16] | 8.87 ± 0.49
AAATAAAATATATACATATATATATTATTTAGTAAT [XGTACX_negctrl_site375] | 8.62 ± 0.52
TCTATGCGTTTTAATAGTACATATAAAATTTATACA [XGTACX_site6986] | 8.42 ± 0.3
AAATATGTTTATATATGTACTTATAATTCAAAATAT [XGTACX_site2167] | 8.48 ± 0.4
TATATATCCATGTGTACACACAAAAAAAAATAAAGT [CACACA_site7107] | 9.43 ± 0.39
AAAACAAATATATTAACACACAAACATATAAACAAA [CACACA_site6052] | 9.27 ± 0.4
AGCTCATGCAGGTGTACACAAAAAGAAAAAAAATAA [CACACA_site4828] | 8.93 ± 0.57
CCCCATATAATGAACACACACACTCCTCATAATTAA [CACACA_site628] | 10.33 ± 0.099
ATGTCCTCAATGTTTACACACTCTTTTATATAAGTT [CACACA_site1460] | 9.22 ± 0.35
ATAAATAATGTTGACACACACAATAATCTTATTATG [CACACA_site3593] | 9.34 ± 0.36

Sequence | gcPBM binding intensity (ln)
TGCTTATATATACGTGCACACATATATATAAGATAT [CACACA_site8516] | 9.03 ± 0.27
CTGGAGGATGAAAAAAGTACAAAAGGAGGAAATGTA [XGTACX_site8846] | 8.81 ± 0.71
AATATATGGTATAATTGTACAAAAAAAAAAAAAAAA [XGTACX_site1476] | 8.74 ± 0.44
TCTTTAATGAACAAATGTACAAGAACAATACCCGCA [XGTACX_site2047] | 8.82 ± 0.42
CTTTAACCTTTTTATTGTACTTTTAATATTTTAAAA [XGTACX_site4457] | 8.54 ± 0.5
GTGAAATGGAAAAAAAGTACAGATTACATAAGTATT [XGTACX_site6355] | 8.85 ± 0.54
TATTAATTTATATCAACACACAAAATCAATATACTT [CACACA_site1757] | 8.7 ± 0.42
AACATAAATATATATAGTACATATATATATATTCAA [XGTACX_site7287] | 8.82 ± 0.42
TTCTATATTTTAGCTGATAATATTATGAGCTTCACT [XGTACX_negctrl_site427] | 8.68 ± 0.54
CGAAATATTATGTACGCACACACATTTTTAATATAT [CACACA_site3852] | 9.46 ± 0.42
ATATAGATCAGACACACACACATGTTTTAAAACTAT [CACACA_site6186] | 9.54 ± 0.38
AAGGAATAATATAAAACACACACATAAATATAAATA [CACACA_site9115] | 9.6 ± 0.42
TTTTGGAATTTTAGCTGTACTTTTCCTATTTTGTAT [XGTACX_site7679] | 8.92 ± 0.44
TTCTTTTCTTCTACATGTACAAATATTATATATATA [XGTACX_site2996] | 9.11 ± 0.36
TGAAACCATAAAGAATGTACACAGCGGTATAAGTTA [XGTACX_site674] | 9.04 ± 0.45
TTAATATATTTAAATATATATAAAATATATAATATG [CACACA_negctrl_site880] | 8.35 ± 0.43
AATAAAATAAGAAGCACACAAATATTATATATAAAA [CACACA_site3980] | 8.96 ± 0.6
TTTTAAATAATACATACATGCATATATACACATATA [TGCATGCA_site8] | 8.62 ± 0.51
TCTTATTTAAAAATAGCACACATTATGTATATATAT [CACACA_site2822] | 8.9 ± 0.33
AGCTCGGAAAAATTAGCATGCAAAAAAAAAAAAAAA [TGCATGCA_site658] | 8.59 ± 0.58
TATTTCACAACTTGTCGTACATTAATTGTATTATTT [XGTACX_site997] | 9.12 ± 0.39
TATATAACTGTCTTCACACACACATATAAATAAATA [CACACA_site7317] | 9.29 ± 0.24

Sequence | gcPBM binding intensity (ln)
ATTATTATTAATAGTACACACTATGGCATTTCAATA [CACACA_site5388] | 8.8 ± 0.42
TTAGGTGTATATAATTGTACATTTTGGAAATTATAC [XGTACX_site5492] | 8.62 ± 0.43
ATCTTTCATCTACCAAGTACAAATTACTTTTTTTTT [XGTACX_site7001] | 8.91 ± 0.49
TTAAATTGAATTAGTTAACACACAACTTTTATTTCA [CACACA_site8921] | 8.63 ± 0.52
TCTTCATACGACTAAAAAACATTAGACTGATAAAAA [CACACA_negctrl_site628] | 8.39 ± 0.4
TATTACACATATTATACACACATATATTATATATAT [CACACA_site4951] | 9.18 ± 0.3
TAACATATTTTTAATACACACTTAAAAAAGTACTTA [CACACA_site4875] | 8.47 ± 0.42
TATAGCATAAATATGTGTACATATTTATATGATATT [XGTACX_site6333] | 8.85 ± 0.5
TATTTATTTATATAAACACACATAAATATAAATATA [CACACA_site6653] | 8.47 ± 0.4
TATATATAATATTATACACACATATATGCATAATAT [CACACA_site54] | 9.07 ± 0.34
ATATATATTTAAAAAAGTACAGAAGAAAATAACCCA [XGTACX_site642] | 8.8 ± 0.42
TTGTGTTTTACATATACATGCAAATTTTTTTTTTTA [TGCATGCA_site303] | 8.4 ± 0.47
TAAATCATTTCATGGCATTTACACAAAATTTTTTAA [CACACA_negctrl_site1260] | 8.35 ± 0.39
TTTCTTTTTTCATTTACACACAATAATATAAGAATA [CACACA_site3164] | 8.62 ± 0.4
TACACAAATATATATATATATATATATATATATATA [XGTACX_negctrl_site305] | 10 ± 0.5
AACGTTCAATTTAAATGTACAAATGTATTTAAATAT [XGTACX_site315] | 8.82 ± 0.43
AGTTTAGAATTTAATACACACAAAAAAAAAAAATTA [CACACA_site7698] | 8.74 ± 0.46
AAATACAAAATTGTTACACACATATTAAGTATGACA [CACACA_site4421] | 8.98 ± 0.47
TATTTATTTTTCTGTTGTACTTTTCAACATGTTACA [XGTACX_site7457] | 8.91 ± 0.52
TCTACATATTAATTATGTACGAATTATTATTAGTAA [XGTACX_site6924] | 8.51 ± 0.37
TAAATGGGTGTTAATGCACACGATATGTCTATATAT [CACACA_site5321] | 8.98 ± 0.38
TATTTATGTTCATATAAACACACGTAAAATTCAAGG [CACACA_site1538] | 8.72 ± 0.44
